Assay results reported in PubChem BioAssay AID686971 (National Center for Advancing Translational Sciences (NCATS), 2013).
The campaign covered roughly 360,000 compounds. About 7,500 (2.1%) were called active. Inconclusive results, whose numbers are uncertain, are shown with a selection of clear calls. Calls come from the whole dose curve; as a rule, active = well fitted cell-killing curve with a large enough effect; inconclusive = small, poorly fitted or top-dose-only effect, or effect the other way, or another doubt; inactive = no such curve, though single readings can be large or run the other way. No potency is given beside an inconclusive call; the fits are too rough.

Assay: qHTS for induction of synthetic lethality in tumor cells producing 2HG: qHTS for the HT-1080-IDH1KD cell line;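 for activity, negative = toxicity: 0% = DMSO wells and -100% = cell-free medium wells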
Conditions: HT-1080 IDH1 knockdown viability, ATP luminescence, 48 h; activity, negative = toxicity: at 46.1 µM (top of the series) unless noted
Outline: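 % activity derives from luminescence (CellTiter-Glo), normalised to DMSO and no-cell wells. HT-1080-IDH1KD cells, 750/well, had 48 h compound exposure at 37 °C.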
Potency is the fitted concentration of half-maximal effect; tags give direction and shape of the fitted curve.

| SMILES | Potency | activity, negative = toxicity |
| --- | --- | --- |
| CCOC(=O)c1c(C)oc2ccc(O)c(CN3CCCCC3)c12 | inactive |  |
| C#CCOCCOCCOCCNc1nc(N2CCN(C(=O)CCCCCCCCCCNC(=O)Cn3cc(CCCCCN)nn3)CC2)nc(N2CCN(C(=O)CCCCCCCCCCNC(=O)[C@H](CO)n3cc(CCCSC)nn3)CC2)n1 | inconclusive [cytotoxic, partial curve] |  |
| O=c1c2c3nc4ccccc4nc3n(/N=C/c3ccccn3)c2ncn1-c1ccccc1 | inconclusive [cytotoxic, partial curve, poor fit] |  |
| O=C(c1cccc(F)c1)N1CCN(c2cccc(Cl)c2)CC1 | active: 14.6 µM |  |
| CC(=O)N(c1ccc(Cl)cc1)c1c[nH]c2ccccc12 | inconclusive [cytotoxic, single point] |  |
| COc1cccc(C(=O)C2CCCN(C(=O)c3cccc(C#CC(C)(C)O)c3)C2)c1 (stereo unspecified) | inactive |  |
| O=C(CNc1ccc2ccccc2c1)N/N=C/C=C/c1cccc([N+](=O)[O-])c1 | inconclusive [cytotoxic, single point] |  |
| O=S(=O)(NNc1ccc(F)cc1F)c1cccc(Cl)c1 |  | inconclusive: -34.8% [cytotoxic] |
| O=C(Nc1ccc(NC(=O)c2cccs2)cc1)c1cccnc1 | inactive |  |
| Cc1c(C(=O)N2CCc3ccccc3C2)sc2nc(-c3ccccc3)cn12 | inconclusive [cytotoxic, single point] |  |
| O=C(OCCN1C(=O)c2cccc3c(N4CCOCC4)ccc(c23)C1=O)c1ccccc1Cl |  | inconclusive: -16.6% [cytotoxic] |
| COc1ccc(C(C[N+](=O)[O-])c2c(-c3ccccc3)cc3ccccn23)c(OC)c1 (stereo unspecified) | inconclusive [cytotoxic, partial curve] |  |
| Cc1ccc(NC(=O)C2CCN(S(=O)(=O)c3ccc(C(C)(C)C)cc3)CC2)cc1S(=O)(=O)N1CCOCC1 | inactive |  |
| COCCN1CCC(CNCc2cn[nH]c2-c2ccc(C)c(C)c2)C1 (stereo unspecified) | inactive |  |
| CCC(=O)Nc1ccc(NC(=O)c2cccc3ccccc23)cc1 | inconclusive [cytotoxic, partial curve] |  |
| C=CCn1c(Cc2csc(N)n2)nnc1SCC(=O)OCC | inactive |  |
| COc1cccc(CC(NC(C)=O)C(=O)NC2CCN(S(=O)(=O)c3ccc4ccccc4c3)CC2)c1 (stereo unspecified) | inconclusive [cytotoxic, single point] |  |
| CCNc1ccc(S(N)(=O)=O)cc1[N+](=O)[O-] | inactive |  |
| Cc1[nH]c2ccccc2c1SCc1nnc(SCc2ccccc2)n1C |  | inconclusive: -33.4% [cytotoxic] |
| Cc1ccc2c(c1)nnn2C1CCN(S(=O)(=O)c2ccc3ccccc3c2)CC1 | inconclusive [cytotoxic, single point] |  |
| Cc1ccc(S(=O)(=O)NCC(=O)OCC(=O)N(C)C2CCCCC2)cc1 | inactive |  |
| CCCOc1ccccc1/C=C(\C#N)C(=O)Nc1cccnc1 | inactive |  |
| O=C(COC(=O)Cc1ccc(Br)cc1)NCc1ccc(F)cc1 |  | inconclusive: 32.1% |
| COc1cc(-c2cc(NC(C)=O)c3ncc(-c4ccc(F)cc4)n3c2)cc(OC)c1OC | inconclusive [cytotoxic, single point] |  |

| SMILES | Potency | activity, negative = toxicity |
| --- | --- | --- |
| CCN1CCN(CCNC(=O)c2cc(Cl)c(NC(=O)C3=C(C)OCCS3)cc2OC)CC1 | inactive |  |
| COC(=O)c1ccc(NC(=O)C(=O)c2cccn2C)cc1 | inconclusive [cytotoxic, single point] |  |
| Cn1nnnc1SCC(=O)Nc1ccc(Oc2ccc(Cl)cc2)cc1 | inconclusive [cytotoxic, single point] |  |
| Cc1nn(C)cc1C(C)NC(=O)c1cc(COc2cccc3cnccc23)on1 (stereo unspecified) | inconclusive [cytotoxic, single point] |  |
| CC(C)[C@H](NC(=O)OC(C)(C)C)C(=O)N/N=C/c1cccc2nccnc12 | inconclusive [cytotoxic, single point] |  |
| COc1cccc(NC(=O)C2CCN(S(=O)(=O)c3ccc4c(c3)C(C)(C)C(=O)N4C)CC2)c1 | inactive |  |
| COc1ccccc1NC(=O)Nc1nc(C(N)Cc2ccc(Cl)cc2)cs1 (stereo unspecified) | inconclusive [cytotoxic, single point] |  |
| CC(C)C[C@H]1CN([C@@H](CC(C)C)CN2CCC[C@@H]2CN2C(=S)NC[C@@H]2Cc2ccc(O)cc2)C(=S)N1CCc1ccccc1 | inconclusive [cytotoxic, partial curve] |  |
| COC(=O)C1=C(C)N2C(=O)CSC2=NC1c1ccc2c(c1)OCO2 (stereo unspecified) | inactive |  |
| CCCc1cc(=O)[nH]c(SCC(=O)c2c(N)n(C)c(=O)n(C)c2=O)n1 | inconclusive [cytotoxic, single point] |  |
| Cc1nn(-c2ccccc2)nc1C(=O)c1c(C)[nH]n(-c2ccccc2)c1=O | inactive |  |
| CC(=O)/C(=N/Nc1ccccc1C)N1CCOCC1 | inconclusive [cytotoxic, single point] |  |
| Cc1cc(C)cc(NS(=O)(=O)c2cnc(Cl)c(Cl)c2)c1 | inconclusive [cytotoxic, single point] |  |
| O=C(c1cccs1)c1cn(CC(=O)N2CCc3ccccc3C2)c2ccccc12 |  | inconclusive: -34.5% [cytotoxic] |
| CC1=CCC2C(=O)N(CCc3c[nH]c4ccccc34)C(=O)C2C1 (stereo unspecified) | inconclusive [cytotoxic, single point] |  |
| O=C(/C=C/NCc1ccc(F)cc1)c1ccccc1 | inconclusive [rising, full curve, poor fit] |  |
| Cc1ccc(NC(=O)C2(C)CCN2C(=O)CCC2CCCC2)cc1C (stereo unspecified) | inactive |  |
| CN(C(=O)/C=C/c1ccc([N+](=O)[O-])s1)c1ccccc1 | inconclusive [cytotoxic, single point] |  |
| O=C(Nc1ccncc1)C1CCCN(S(=O)(=O)c2cccc3cccnc23)C1 (stereo unspecified) | inconclusive [cytotoxic, full curve, poor fit] |  |
| COCCNc1nc(N)c([N+](=O)[O-])c(Nc2ccc(F)cc2)n1 | active: 14.6 µM |  |
| COc1cc(-n2c(C)nc3ncn(-c4ccccc4)c3c2=O)cc(OC)c1OC | inactive |  |
| CSc1nc(=O)n(CCC#N)nc1SC | inconclusive [cytotoxic, single point] |  |
| COc1ccc(CNC(=O)c2ccc(-c3cnn(C)c3)c3ccoc23)cc1OC | inactive |  |
| CCN(CC)c1ccc(/C=C(\C#N)C(=O)c2ccc(Br)cc2)cc1 | inconclusive [cytotoxic, partial curve] |  |

| SMILES | Potency | activity, negative = toxicity |
| --- | --- | --- |
| COCCNC(=O)c1ccc(CSc2nc3ccccc3s2)cc1 | inconclusive [cytotoxic, partial curve] |  |
| CN(C)c1ncnc2c1ncn2[C@H]1CN(Cc2cccs2)C[C@@H](CO)O1 | inactive |  |
| CC(C)CCNc1nc(N)c([N+](=O)[O-])c(N2CCCCCC2)n1 | inconclusive [cytotoxic, single point] |  |
| Cc1[nH]n(-c2cccc3ccccc23)c(=O)c1/C=N/NC(=O)c1cccc([N+](=O)[O-])c1 | inconclusive [cytotoxic, single point] |  |
| Cc1ccc(S(=O)(=O)N2CCCC2CNC(=O)c2ccccc2)cc1 (stereo unspecified) | inactive |  |
| O=C(COC(=O)c1cc(Cl)ccc1O)NNC(=O)c1ccccc1F | inactive |  |
| CN(CC(=O)Nc1ccc(C#N)cc1)Cc1ccc(Cl)c(Cl)c1 | inconclusive [cytotoxic, single point] |  |
| O=C(Nc1ccc(F)cc1F)c1csc(-c2cccs2)n1 | inconclusive [cytotoxic, single point] |  |
| COc1ccc(CNC(=O)C2CCN(S(=O)(=O)N3CCCCC3)CC2)cc1 | inactive |  |
| CCCOC(=O)c1[nH]c2c(c1C)C(=O)CC(c1cccs1)C2 (stereo unspecified) | active: 0.651 µM |  |
| C/C(=N\NC(=S)NCc1ccccc1)c1cccs1 | inactive |  |
| O=S(=O)(NC1c2cccc3cccc(c23)C1N1CCNCC1)c1ccc(Cl)cc1 (stereo unspecified) | active: 20.6 µM |  |
| CN(CC(=O)Nc1ccc(Cl)cc1)CC(=O)Nc1ccc(C(N)=O)cc1 | inactive |  |
| COc1ccc(NC(=S)NNc2ccc([N+](=O)[O-])cc2S(=O)(=O)Nc2ccc(C)cc2C)cc1 | active: 18.4 µM |  |
| O=C(CCC1CCCC1)NCCCNC(=O)CCC1CCCC1 | inactive |  |
| CCOC(=O)c1c(-c2ccccc2)oc2ccc(O)c(CN3CCOCC3)c12 | inconclusive [cytotoxic, partial curve] |  |
| N#CC1=C(N)C(C#N)(C#N)C(c2cccnc2)C2CN(C(=O)OCc3ccccc3)CC=C12 (stereo unspecified) | inconclusive [cytotoxic, single point] |  |
| COc1cc(C(=O)COC(=O)C2CCN(c3ccc(C(F)(F)F)cn3)CC2)ccc1OC(F)F | inactive |  |
| CC(C)(C)c1ccc(-c2n[nH]c(=S)n2C2CCCC2)cc1 | inconclusive [cytotoxic, single point] |  |
| O=C(O)c1ccccc1N/N=C\c1ccnc2ccccc12 | inconclusive [cytotoxic, single point] |  |
| CO/N=C(\c1nonc1N)N1CCN(c2ccc(Cl)cc2[N+](=O)[O-])CC1 | inconclusive [cytotoxic, single point] |  |
| COC(=O)C1=C(C(=O)OC)[C@@H]2N(C)c3ccccc3[C@@]23C[C@@H](C(=O)OC)N(C(=O)c2ccc(Br)cc2)C3=N1 | inconclusive [cytotoxic, single point] |  |
| COc1cccc(C2=NN(C(=O)c3ccco3)C(O)(C(F)(F)F)C2)c1 (stereo unspecified) | inconclusive [cytotoxic, full curve] |  |
